Experimental data from the supplement of paper PMC4967469.

Legend:
Test in all cases: Viability of human cancer cell lines after 72 h of drug (GDSC screen)
SGC0946 = compound: CC(C)N(CCCNC(=O)Nc1ccc(C(C)(C)C)cc1)C[C@H]1O[C@@H](n2cc(Br)c3c(N)ncnc32)[C@H](O)[C@@H]1O [SGC0946]; conditions: top dose 0.5 µM; top dose inferred
Method: (§1)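 Human cancer cell lines in 384-well plates, medium with 10% serum, drug for 72 h over a 256-fold dose range (nine 2-fold or five 4-fold steps up to the top dose). Adherent lines were fixed and stained with the nucleic acid dye Syto60, suspension lines read with resazurin; signal relative to control wells, capped at 0 and 100%. One two-parameter sigmoid per drug and line, fitted in a mixed model over all curves with the slope shared within a line.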

Lenalidomide = compound: Nc1cccc2c1CN(C1CCC(=O)NC1=O)C2=O [Lenalidomide]; conditions: top dose 5 µM; top dose inferred
Method: as §1

VX-680 = compound: Cc1cc(Nc2cc(N3CCN(C)CC3)nc(Sc3ccc(NC(=O)C4CC4)cc3)n2)n[nH]1 [VX-680]; conditions: top dose 2 µM
Method: as §1

Bryostatin 1 = compound: CCC/C=C/C=C/C(=O)O[C@H]1/C(=C/C(=O)OC)C[C@H]2C[C@H]([C@@H](C)O)OC(=O)C[C@H](O)C[C@@H]3C[C@H](OC(C)=O)C(C)(C)[C@](O)(C[C@@H]4C/C(=C/C(=O)OC)C[C@H](/C=C/C(C)(C)[C@]1(O)O2)O4)O3 [Bryostatin 1]; conditions: top dose 0.008 µM; top dose inferred
Method: as §1

GW-2580 = compound: COc1ccc(COc2ccc(Cc3cnc(N)nc3N)cc2OC)cc1 [GW-2580]; conditions: top dose 20 µM; top dose inferred
Method: as §1

Row | Cell Line | AUC (SGC0946) | IC50 (SGC0946) [nM] | AUC (Lenalidomide) | IC50 (Lenalidomide) [nM] | AUC (VX-680) | IC50 (VX-680) [nM] | AUC (Bryostatin 1) | IC50 (Bryostatin 1) [nM] | AUC (GW-2580) | IC50 (GW-2580) [nM]
1 | NCI-H1876 (small cell lung carcinoma, adherent) | 0.982 | > 500 | 0.987 | > 5000 | 0.78 | 836 | 0.982 | > 8 | 0.977 | > 20000
2 | NCI-H2135 (non-small cell lung carcinoma, adherent) | 0.99 | > 500 | 0.989 | > 5000 | 0.98 | > 2000 | 0.991 | > 8 | 0.99 | > 20000
3 | NCI-SNU-5 (stomach, suspension) | 0.988 | > 500 | 0.978 | > 5000 | 0.976 | > 2000 | 0.989 | > 8 | 0.989 | > 20000
4 | NOMO-1 (acute myeloid leukaemia, suspension) | 0.98 | > 500 | 0.961 | > 5000 | 0.83 | 1500 | 0.982 | > 8 | 0.982 | > 20000
5 | NTERA-2 cl.D1 (testis, adherent) | 0.984 | > 500 | 0.985 | > 5000 | 0.237 | 21.8 | 0.968 | > 8 | 0.985 | > 20000
6 | OCI-M1 (acute myeloid leukaemia, suspension) | 0.995 | > 500 | 0.994 | > 5000 | 0.9 | 1480 | 0.994 | > 8 | 0.99 | > 20000
7 | OCUB-M (breast, adherent) | 0.989 | > 500 | 0.99 | > 5000 | 0.393 | 66.6 | 0.99 | > 8 | 0.908 | > 20000
8 | OMC-1 (cervix, adherent) | 0.986 | > 500 | 0.988 | > 5000 | 0.988 | > 2000 | 0.956 | > 8 | 0.97 | > 20000
9 | OS-RC-2 (kidney, adherent) | 0.975 | > 500 | 0.955 | > 5000 | 0.858 | > 2000 | 0.893 | > 8 | 0.975 | > 20000
10 | OVCAR-4 (ovary, adherent) | 0.972 | > 500 | 0.972 | > 5000 | 0.75 | 961 | 0.963 | > 8 | 0.971 | > 20000
11 | P32-ISH (Burkitt lymphoma, suspension) | 0.995 | > 500 | 0.953 | > 5000 | 0.282 | 36.3 | 0.935 | 8 | 0.995 | > 20000
12 | PL-21 (acute myeloid leukaemia, suspension) | 0.98 | > 500 | 0.966 | > 5000 | 0.918 | > 2000 | 0.97 | > 8 | 0.972 | > 20000
13 | PSN1 (pancreas, adherent) | 0.991 | > 500 | 0.982 | > 5000 | 0.492 | 119 | 0.946 | > 8 | 0.977 | > 20000
14 | RKO (large intestine, adherent) | 0.987 | > 500 | 0.987 | > 5000 | 0.569 | 190 | 0.971 | > 8 | 0.988 | > 20000
15 | RL (B-cell lymphoma, suspension) | 0.976 | > 500 | 0.99 | > 5000 | 0.99 | > 2000 | 0.987 | > 8 | 0.982 | > 20000
16 | RPMI-6666 (Hodgkin lymphoma, suspension) | 0.974 | > 500 | 0.975 | > 5000 | 0.795 | 1150 | 0.976 | > 8 | 0.963 | > 20000
17 | RPMI-8866 (chronic myeloid leukaemia, suspension) | 0.987 | > 500 | 0.898 | > 5000 | 0.988 | > 2000 | 0.984 | > 8 | 0.98 | > 20000
18 | SF126 (glioma, adherent) | 0.973 | > 500 | 0.98 | > 5000 | 0.775 | 832 | 0.974 | > 8 | 0.985 | > 20000
19 | SF539 (glioma, adherent) | 0.989 | > 500 | 0.99 | > 5000 | 0.958 | > 2000 | 0.987 | > 8 | 0.99 | > 20000
20 | SJSA-1 (bone, adherent) | 0.982 | > 500 | 0.984 | > 5000 | 0.915 | > 2000 | 0.97 | > 8 | 0.981 | > 20000
21 | SK-ES-1 (Ewing sarcoma, semi-adherent) | 0.983 | > 500 | 0.983 | > 5000 | 0.455 | 93.2 | 0.972 | > 8 | 0.979 | > 20000
22 | SK-MEL-2 (melanoma, adherent) | 0.986 | > 500 | 0.979 | > 5000 | 0.98 | > 2000 | 0.97 | > 8 | 0.98 | > 20000
23 | SK-N-FI (neuroblastoma, adherent) | 0.987 | > 500 | 0.983 | > 5000 | 0.93 | > 2000 | 0.988 | > 8 | 0.982 | > 20000
24 | SNU-C2B (large intestine, adherent) | 0.978 | > 500 | 0.98 | > 5000 | 0.93 | > 2000 | 0.921 | > 8 | 0.973 | > 20000

The IC50 comes from the fitted curve, where viability falls to half of the control; a fit beyond the top or the lowest dose is shown as a bound at that dose. For AUC the same curve is integrated over the 256-fold range of doses and scaled to a fraction: 1 means no effect, lower means more sensitive. For part of these data: Any top dose called inferred is not printed in the source and was worked back from the curve model.
